# Laboratory results taken from PMC4336329 (PLoS ONE, 2015).
# Out of some 310,000 compounds screened, about 2,200 (0.71%) showed an effect of 50% or more. The effect is printed as a negative number. The list shows a part of the results.
# Target: human ether-à-go-go-related gene (hERG) potassium channel (human, UniProt Q12809)
# Assay: primary screen, population patch clamp on CHO cells stably expressing hERG
# human ether-à-go-go-related gene (hERG) potassium channel, sequence (Q12809 whole entry, looked up): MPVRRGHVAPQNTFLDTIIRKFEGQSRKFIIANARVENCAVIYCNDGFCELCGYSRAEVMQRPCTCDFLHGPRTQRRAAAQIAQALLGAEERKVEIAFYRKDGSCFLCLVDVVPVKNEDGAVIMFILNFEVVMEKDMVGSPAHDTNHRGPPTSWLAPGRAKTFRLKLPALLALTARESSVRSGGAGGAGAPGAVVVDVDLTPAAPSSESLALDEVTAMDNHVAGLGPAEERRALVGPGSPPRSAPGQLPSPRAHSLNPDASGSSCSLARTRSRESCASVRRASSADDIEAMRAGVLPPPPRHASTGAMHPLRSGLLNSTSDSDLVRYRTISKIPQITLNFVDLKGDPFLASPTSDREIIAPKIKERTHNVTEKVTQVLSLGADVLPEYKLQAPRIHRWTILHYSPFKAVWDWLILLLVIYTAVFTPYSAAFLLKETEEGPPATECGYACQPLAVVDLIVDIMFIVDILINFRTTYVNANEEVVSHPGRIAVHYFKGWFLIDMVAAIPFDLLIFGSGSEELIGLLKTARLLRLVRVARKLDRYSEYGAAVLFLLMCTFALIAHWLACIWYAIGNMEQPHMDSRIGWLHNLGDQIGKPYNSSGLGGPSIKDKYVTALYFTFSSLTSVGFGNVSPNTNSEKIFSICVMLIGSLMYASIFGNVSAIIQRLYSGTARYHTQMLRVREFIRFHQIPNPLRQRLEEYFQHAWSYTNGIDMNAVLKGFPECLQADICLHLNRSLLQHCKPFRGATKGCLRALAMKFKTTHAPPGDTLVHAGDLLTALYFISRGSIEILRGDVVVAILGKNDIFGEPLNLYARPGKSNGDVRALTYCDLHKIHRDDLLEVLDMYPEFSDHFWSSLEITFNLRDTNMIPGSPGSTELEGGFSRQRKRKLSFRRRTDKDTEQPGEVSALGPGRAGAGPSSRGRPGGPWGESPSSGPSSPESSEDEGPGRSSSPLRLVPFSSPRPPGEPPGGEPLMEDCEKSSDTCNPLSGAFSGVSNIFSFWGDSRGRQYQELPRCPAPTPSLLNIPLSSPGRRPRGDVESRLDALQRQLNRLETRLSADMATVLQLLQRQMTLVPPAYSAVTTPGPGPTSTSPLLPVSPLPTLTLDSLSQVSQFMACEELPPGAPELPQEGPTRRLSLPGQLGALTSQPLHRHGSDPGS
row,Structure (SMILES),"hERG current change (%, negative = inhibition) at 1uM"
1,Cc1ccc(-c2cc3c(N=O)c4ccccc4c-3n[nH]2)cc1,16.6%
2,Cc1ccc(S(=O)(=O)N2CCCCC2)cc1NC(=O)Cn1cc(C(F)(F)F)ccc1=O,8.63%
3,CC(=O)Nc1ccc(S(=O)(=O)Nc2cccc(NC(=O)c3ccco3)c2)cc1,21.6%
4,Cc1[nH]n(-c2ccccc2)c(=O)c1N=Nc1cccc(C(=O)O)c1,14.2%
5,COc1cccc(-n2ccnc2SCC(=O)N2CCc3ccccc32)c1,6.4%
6,CSCCC(NC(=O)c1ccccc1)C(=O)Nc1ccc(C)cc1 (stereo not drawn),13%
7,CN1CCN(CCCNC(=O)CCc2nnc3n(Cc4ccccc4Cl)c(=O)c4ccccc4n23)CC1,15.6%
8,Fc1cccc(Cl)c1-c1nnc2ccc(N3CCOCC3)nn12,0.573%
9,O=C(CN1C(=O)c2ccccc2C1=O)N1CCOCC1,-0.632%
10,CC(=C\C(=O)O)/C(=C/c1ccccc1)C(=O)O,14.1%
11,Cc1nn(C)c(C)c1NS(=O)(=O)c1ccc(OC(F)(F)F)cc1,13.8%
12,O=C1CN(C(=O)COC(=O)C23CC4CC(CC(O)(C4)C2)C3)c2ccccc2N1,9.31%
13,C/C(=N\Nc1cccc2ccccc12)c1c(O)n(Cc2ccccc2)c(=O)[nH]c1=O,20.8%
14,Cc1ccc(OCC(O)CNS(=O)(=O)c2ccccc2C(=O)O)cc1 (stereo not drawn),11.7%
15,O=C(NC1CCCCC1)c1ccc(-n2cnnn2)cc1,8.39%
16,O=C(COC(=O)CCS(=O)(=O)c1ccccc1)Nc1ccccc1,0.18%
17,O=C(c1ccco1)n1nc(-c2ccccc2)nc1SCc1ccccc1,7.86%
18,O=C(CN1CCCCC1)NCC(=O)Nc1ccc(F)c(F)c1F,11.5%
19,O=C(CN1CCN(C/C=C/c2ccccc2)CC1)NC(=O)NC1CCCCC1,-69.7%
20,COc1ccc(C)cc1S(=O)(=O)N(CC(=O)O)c1ccccc1,8.53%
21,Cl.O=C(CN1CCOCC1)n1c2c(c3ccccc31)CCCC2,3.34%
22,CCc1cc(C(=O)NCC(c2ccco2)N2CCCCC2)sc1C (stereo not drawn),5.44%

row,Structure (SMILES),"hERG current change (%, negative = inhibition) at 1uM"
1,Cc1cc(=O)c2ccccc2[nH]1,3.6%
2,CCC(C)[C@H](NC(=O)N1CCCCCC1)C(=O)OC (stereo partly drawn),6.13%
3,C=C1CCC2[C@](C)(CO)[C@H](O)CC[C@@]2(C)[C@@H]1C/C=C1\C(=O)OC[C@H]1O (stereo partly drawn),14.1%
4,CN(C(=O)CN1C(=O)NC2(CCc3ccccc32)C1=O)C1CCS(=O)(=O)C1 (stereo not drawn),14.9%
5,CCOC(=O)C(C)n1cnc2c(nnn2-c2cccc(OC)c2)c1=O (stereo not drawn),16.7%
6,COc1ccc(NC(=O)C2CCCN2S(=O)(=O)c2cccc3cccnc23)cc1OC (stereo not drawn),13.8%
7,O=C(O)C(=O)O.c1ccc(CCNc2nc(-c3ccccn3)cs2)cc1,8.72%
8,Cc1ccc2c(c1C)OC(=O)CC2(C)C,16.6%
9,COc1ccc(N2CCN(C3CC(=O)N(c4ccc5c(c4)OCCO5)C3=O)CC2)cc1 (stereo not drawn),-5.46%
10,COc1ccc(CNC(=O)Cn2ncn3cccc3c2=O)cc1,3.74%
11,CC(C)NC(=O)Cn1c(SCC(=O)N2CCCCCC2)nc2ccccc21,7.07%
12,CS(=O)(=O)N1CCN(c2ccccc2NC(=O)CSc2ccc(Cl)cc2)CC1,6.65%
13,Cc1cc(OCCCn2ccnc2)ccc1[N+](=O)[O-].O=C(O)C(=O)O,9.12%
14,Cc1ccc(C2=NC3(CCCC3)N=C2SCC(=O)Nc2ccc3c(c2)OCCO3)cc1,2.62%
15,CCN1CCN(C(c2ccccc2)c2nnnn2Cc2ccc3c(c2)OCO3)CC1.Cl (stereo not drawn),-19.9%
16,C=CCc1cccc(C=Nc2cc(Br)ccc2O)c1O,15.2%
17,Cc1ccc(S(=O)(=O)N/N=C/c2cccc3c2OCCO3)cc1,-2.33%
18,CSc1cccc(NC(=O)C2C3C=CC4(O3)C2C(=O)N(CCCN2CCOCC2)C4C(=O)NC2CCCCC2)c1 (stereo not drawn),8.89%
19,CC1CCCCC1NC(=O)CN(C)S(=O)(=O)c1cccc2cccnc12 (stereo not drawn),5.74%
20,COc1ccc(C(=O)Nc2ccc3ncccc3c2)cc1,19.9%
21,Cc1csc(NC(=O)CSc2nc3ccccc3c(=O)[nH]2)n1,9.95%
22,CCN(C(=O)COC(=O)CNC(=O)C12CC3CC(CC(C3)C1)C2)C1CCS(=O)(=O)C1 (stereo not drawn),13%

row,Structure (SMILES),"hERG current change (%, negative = inhibition) at 1uM"
1,CCc1ccc2c(CN3CCN(S(=O)(=O)c4ccc5c(c4)OCCO5)CC3)cc(=O)oc2c1,8.02%
2,O=C(Oc1ccc(OC(=O)N2CCOCC2)cc1)c1ccccc1,9.96%
3,Cn1c(CCc2nc3ccccc3[nH]2)nnc1SCC#N,12.8%
4,Cc1nn(C(=O)c2ccccc2)c2c1C(=O)CC(C)(C)C2,8.19%
5,Cc1cccc(NC(=O)CN2CCN(C(=O)c3oc4c(Cl)cccc4c3C)CC2)c1C,-6.46%
6,CCc1ccc(-c2nnn(Cc3nc4ccccc4s3)n2)cc1,-5.03%
7,Nc1nn(S(=O)(=O)c2ccccc2)cc1-c1cccc([N+](=O)[O-])c1,5.91%
8,Cc1ccc(S(=O)(=O)N2CCC[C@H]2C(=O)OCC(=O)c2ccc3c(c2)NC(=O)CO3)cc1,-10.2%
9,CCCC(=O)Nc1ccc(C(=O)Nc2cc(C(F)(F)F)ccc2Cl)cc1,11.5%
10,COc1ccc(CCNC(=O)C2CCN(C(=O)c3cccs3)CC2)cc1,5.64%
11,C#CCNC(=O)C(C)c1ncc(C(F)(F)F)cc1Cl (stereo not drawn),15.9%
12,CSc1ccc(CN2CCC(n3nccc3NC(=O)CCCc3ccccc3)CC2)cc1,-35.7%
13,O=C(O)C(=O)O.c1ccc(COc2ccc(OCCCN3CCCCC3)cc2)cc1,-57.7%
14,O=C(NC1CC1)C1=C[C@@H](c2c[nH]c3ccccc23)C[C@@H](OCCCCO)O1,12.4%
15,Cc1cc(C(=O)Nc2nc3ccc(Cl)cc3s2)nn1C,14.5%
16,CCC(C)(C)NC(=O)Cc1ccc(OC)c(OC)c1,8.06%
17,COc1cccc(C(=O)Nc2ccc(NC(=O)c3ccco3)cn2)c1,5.61%
18,O=C(CSc1n[nH]c(=O)n1-c1cccnc1)N1CCOCC1,-4.15%
19,Br.CCC1(C)CC(c2nc(-c3ccc(OC)cc3)cs2)CCS1 (stereo not drawn),4.66%
20,Cc1ccc(/C=C/C(=O)NCCc2c[nH]c3ccccc23)o1,5.1%
21,COc1ccc(N2CCN(C(C)C(=O)N3CC(C)OC(C)C3)CC2)cc1.O=C(O)C(=O)O (stereo not drawn),9.01%
22,CCOc1ccc(CN2CCN(Cc3cc4ccccc4o3)CC2CCO)cc1 (stereo not drawn),-82%

row,Structure (SMILES),"hERG current change (%, negative = inhibition) at 1uM"
1,Cc1ccc(C(=O)NCCCNCCCN(C)C)cn1.O=C(O)/C=C/C(=O)O,-1.6%
2,COC(=O)c1sc2nc(SCc3ccccc3C#N)n(N)c(=O)c2c1C,4.1%
3,COC(=O)Sc1nc(N2CCOCC2)c2c(c1C#N)CC(C)(C)OC2,11.2%
4,Cc1cc(C(=O)Nc2ccc(Nc3ccccc3)cc2)ccc1[N+](=O)[O-],10.9%
5,Cc1cc(C)c2cc(C#N)c(N3CCCN(C(=S)NCCCN(C)C)CC3)nc2c1,6.74%
6,Cc1scc(C(=O)N/N=C/c2ccc(OCC(C)C)cc2)c1C,10.7%
7,Cc1c(C(=O)N(CCc2ccccc2)Cc2ccccc2)cccc1[N+](=O)[O-],12.7%
8,COc1ccccc1C(=O)NCCC(=O)OCC(=O)Nc1ccc(S(N)(=O)=O)cc1,8.56%
9,COC(=O)C1=C(c2ccc(F)cc2OCc2ccccc2)C[C@@H]2CC[C@H]1N2C(=O)NCc1ccc2[nH]ccc2c1,16.7%
10,COc1cccc(C(C(=O)NC(C)(C)C)N(C(=O)CCC(=O)Nc2cc(C)on2)c2ccc3c(c2)OCCO3)c1OC (stereo not drawn),12.9%
11,O=C(Nc1ccccc1F)c1ccc(-n2cncn2)nc1,5.06%
12,Nc1c(N(CCCO)C(=O)C2CCCC2)c(=O)[nH]c(=O)n1Cc1ccccc1,11.7%
13,CCN1CCN(CCCNC(=O)c2ccc3c(c2)N(Cc2ccccc2)CCS3)CC1,0.086%
14,O=C(CSc1ccccn1)N1CCN(c2cccc(Cl)c2)CC1,-5.82%
15,Cc1cccc(NC(=O)COC(=O)Cc2cccc(C(F)(F)F)c2)c1C,15.8%
16,O=C(CSc1nnnn1-c1ccccc1)NCC1(N2CCCCC2)CCCCC1,-23.9%
17,CCOC(=O)CCC(NC(=O)c1cncc(O)c1)C(=O)OCC.Cl (stereo not drawn),5.71%
18,COc1cc(C(=O)NCC2(N3CCCCC3)CCCCC2)ccc1OCC(=O)N1CCOCC1,4.46%
19,Cc1oc2ccc(O)c(CN3CCOCC3)c2c1C(=O)c1ccc(Cl)cc1,-6.46%
20,COC(=O)c1c(C)[nH]c(C(=O)OC(C)C(=O)N2CCOCC2)c1C (stereo not drawn),13%
21,CC(C)CNC(=O)COC(=O)c1ccc(F)cc1Cl,15.8%
